From PubChem BioAssay AID445 (National Center for Advancing Translational Sciences (NCATS), 2006)
In all, about 110,000 compounds went through this assay and about 40 (0.04%) were called active. Inconclusive results, whose numbers are uncertain, are shown with a selection of clear calls. Calls follow the shape of the dose curve; as a rule, active = well fitted curve in the direction sought with a large enough effect in the signal ratio (not every such curve was filed as active); inconclusive = small, poorly fitted or top-dose-only effect, or a change in a side signal; inactive = flat fitted curve, though single readings scatter; the % refers to the signal ratio. Potencies beside an inconclusive call are fits to weak or partial responses and may not hold up.

Test: IkB Signaling;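 as to IkBa stabilization activation: 0% = basal untreated cells and 100% = reference inhibitor full response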
Settings: ABC-DLBCL IkBa-CBG/CBR dual luciferase ratio (green luciferase fused to IkBa over red control in OCI-Ly3 lymphoma cells), 4 h; IkBa stabilization activation: at 57.1 µM (top of the series), scaled: untreated 0%, proteasome inhibitor 100% unless noted
Summary of the method: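 Curves were fitted separately to fusion (green), unfused (red) and ratio luminescence, then classed by r2, magnitude and activity. Cells: OCI-Ly3, 4 h compound plus doxycycline at 37C; 10 uM MG-132 defined full response.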
Potency is read from the fitted curve at half-maximal effect.

Which IkBa stabilization activation does the source give for COCCCn1cnc2oc3nc4ccccc4nc3c2c1=O here?
The IkBa stabilization activation was “inactive”.

For COCCCNC(=O)c1cc2c(-c3cccc(OC)c3)nn(C)c2s1, which IkBa stabilization activation is on record?
The IkBa stabilization activation was inconclusive: 1.91% [signal inhibitor].

For O=C(CSc1nccn1Cc1ccc(Cl)cc1)Nc1nc2ccccc2s1, which IkBa stabilization activation is on record?
Its IkBa stabilization activation is inconclusive: 4.91% [signal inhibitor].

For COC(=O)Cn1cnc2c(nnn2-c2ccc(C)cc2)c1=O, which IkBa stabilization activation is on record?
Its IkBa stabilization activation is “inactive”.

Which Potency does the source give for COc1ccccc1-c1cn(S(=O)(=O)c2ccc(F)cc2)nc1N here?
The Potency was inconclusive: 12.6 µM [signal inhibitor, partial curve].

With CCc1ccc(NC(=O)c2cc(S(=O)(=O)N3CCCC(C)C3)cn2C)cc1 (stereo not drawn) as the molecule, how does the IkBa stabilization activation read?
Its IkBa stabilization activation is inconclusive: 0.443% [signal inhibitor].

With CCOc1ccc(CNC(=O)C2CCN(C(=O)c3ccc(-n4ccc5ccccc54)s3)CC2)cc1 as the molecule, how does the IkBa stabilization activation read?
The IkBa stabilization activation was inconclusive: 2.24% [signal inhibitor].

Which IkBa stabilization activation does the source give for Cc1cccc(NC(=O)Cn2c(=O)n(CCCCCC(=O)NCc3ccccc3)c(=O)c3sccc32)c1 here?
The IkBa stabilization activation was inconclusive: 9.06% [signal inhibitor].

For CCOC(=O)N1CCN(C(=O)c2ccc3c(c2)N(Cc2ccccc2F)C(=O)c2ccccc2S3(=O)=O)CC1, which IkBa stabilization activation is on record?
The IkBa stabilization activation was “inactive”.

For CCCC(=O)Nc1cc(-c2nn(C)c(=O)c3ccccc23)ccc1N1CCCCC1, which IkBa stabilization activation is on record?
The IkBa stabilization activation was “inactive”.

Which IkBa stabilization activation does the source give for CN(C)c1ncc2nc(-c3ccc(F)cc3)c(=O)n(-c3ccccc3)c2n1 here?
Its IkBa stabilization activation is inactive: -2.44% [at 11.4 µM, scaled: untreated 0%, proteasome inhibitor 100%].

With Cc1ccc(C)c(N2CCN(S(=O)(=O)c3c(C(=O)N4CCC(C)CC4)c(C)n(C)c3C)CC2)c1 as the molecule, how does the IkBa stabilization activation read?
Its IkBa stabilization activation is inconclusive: -0.817% [signal inhibitor].

For O=C(COc1ccccc1)NCC(c1ccc(Cl)cc1)N1CCCCC1 (stereo not drawn), which IkBa stabilization activation is on record?
The IkBa stabilization activation was inconclusive: 4.06% [signal inhibitor].

Which IkBa stabilization activation does the source give for Cc1ccc2c(c1)N[C@H](c1ccc(C(=O)O)cc1)c1cccn1-2 here?
Its IkBa stabilization activation is inactive: 2.22% [at 11.4 µM, scaled: untreated 0%, proteasome inhibitor 100%].

With c1ccc(-c2cccc(N3CCC4(CCNCC4)CC3)c2)cc1 as the molecule, how does the IkBa stabilization activation read?
Its IkBa stabilization activation is inactive: -3.67% [at 11.4 µM, scaled: untreated 0%, proteasome inhibitor 100%].

Which IkBa stabilization activation does the source give for O=C(Nc1ccc(Br)c(Cl)c1)c1ccc(C(=O)Nc2ccc(Br)c(Cl)c2)cc1 here?
Its IkBa stabilization activation is “inactive”.

Which IkBa stabilization activation does the source give for Cc1cccc(CC(=O)N2CC(=O)Nc3ccc(Br)cc3C2c2ccc(F)cc2)c1 (stereo not drawn) here?
Its IkBa stabilization activation is inconclusive: 5.54% [signal inhibitor].

With N#CC(C(=O)OC1CCCCC1)c1nc2ccccc2nc1N1CCOCC1 (stereo not drawn) as the molecule, how does the IkBa stabilization activation read?
Its IkBa stabilization activation is “inactive”.
